In PubChem BioAssay AID493208 (National Center for Advancing Translational Sciences (NCATS), 2011):
Out of some 44,000 compounds screened, about 340 (0.77%) were called active. Not shown: some 5% with an inconclusive outcome. The call rests on the fitted dose curve; in most records, active means well fitted inhibition curve with a large enough effect; inconclusive means small, poorly fitted or top-dose-only effect; inactive means flat fitted curve, though single readings scatter. Some of the results follow.

Assay: Acumen qHTS Assay for Inhibitors of the mTORC1 Signaling Pathway in MEF (Tsc2-/-, p53-/-) Cells: Sytravon;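 further: plate controls were DMSO for no effect and rapamycin for full effect; nearly all actives have a fitted effect of over 50% in size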
Conditions: phospho-rpS6 immunofluorescence/PI, 24 h; series mostly up to 38.3 µM; activity change, negative = inhibition: at the top concentration
Method in brief: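 Tsc2-/-, p53-/- MEFs (empty-vector stable line) in DMEM + 10% FBS were treated with compounds 24 h at 37 degree Celsius, fixed, and immunostained for phospho-rpS6 (Alexa-488) with propidium iodide counterstain. Laser-scanning cytometry gave % positive cells, normalized against 7.5 nM rapamycin and DMSO.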

Activity change, negative = inhibition, inactive:
CCc1ccc(CN2C(=O)c3ccccc3C2C(=O)NCCc2ccc(OC)c(OC)c2)cc1 (stereo not given) 1.83%, CN(CC(=O)Nc1cccc(C(F)(F)F)c1)S(=O)(=O)c1ccc2[nH]c3c(c2c1)CCCC3 -5%, Cc1csc2nc(COC(=O)c3ccccc3NC(=O)c3ccc(F)cc3)cc(=O)n12 3.57%, COc1ccc(NC(=O)c2cc3c(=O)[nH]c4ccccc4c3n2C)cc1Cl 0.808%, CCCN(C(=O)CCc1nc(-c2ccccc2F)no1)c1ccc(CC)cc1 -1.69%, Cc1ccc(C)c(N2CCN(C(=O)c3ccc(CS(=O)(=O)c4ccc(Br)cc4)o3)CC2)c1 -13.9%, CCOc1cc2[nH]c(=O)n(Cc3ccc(C(=O)NCCN(CC)CC)cc3)c(=O)c2cc1OCC -1.86%, COc1ccc(CC(=O)NCc2nc3cccnc3n2Cc2ccc(F)cc2)cc1OC -2.42%, Cc1ccc(S(=O)(=O)Nc2cc3c(cc2NCc2ccccc2)n(C)c(=O)n3C)c(C)c1 -0.101%, O=C(CCc1nc(CN2CCN(S(=O)(=O)c3ccc(Cl)cc3)CC2)no1)N1CCCCC1 -5.58%, Cc1cccc(Cn2c(SCc3ccc(C(=O)NCCc4ccccc4)cc3)nc3ccncc32)c1 1.44%, CCc1cccc(C)c1NC(=O)Cn1ccn(-c2cccc(OC)c2)c(=O)c1=O -4.4%, COc1ccc(-c2cc3nc(C)c(CCC(=O)Nc4ccccc4C(C)=O)c(C)n3n2)c(OC)c1 -5.33%, COc1ccc(-n2c(=O)c3c(c4cc(OC)ccc4n3C)n(Cc3cccc(OC)c3)c2=O)cc1 -1.32%, O=C(CCC1N=C2c3ccccc3N=C(SCc3ccc(F)cc3)N2C1=O)NCc1ccc(F)cc1 (stereo not given) 0.54%, Fc1cccc(-n2ncc3c2ncn2nc(COc4ccc(Cl)cc4)nc32)c1 3.78%, CCCC1=Nc2cc(C(=O)NCc3ccc(OC)cc3)ccc2Sc2ccc(C)cc21 -14.1%, O=C(CSCc1cccc(F)c1)NCc1ccccc1 7.64%, CCC(C(=O)Nc1cc(OC)cc(OC)c1)n1nc(-c2ccc(C)c(C)c2)ccc1=O (stereo not given) -4.81%, Cc1nc2scc(C)n2c(=O)c1S(=O)(=O)Nc1ccc(N2CCOCC2)c(Cl)c1 -29%, CCOc1ccc(-c2nc(CSCC(=O)N3CCN(c4ccc(F)cc4)CC3)c(C)o2)cc1 -7.1%, CCOc1ccc(C(=O)NCCn2cc(SCC(=O)Nc3ccc4c(c3)OCCO4)c3ccccc32)cc1 -2.67%, CN1CCc2c(sc3c2C(=O)NC(c2ccc(OC(=O)c4ccc(C(C)(C)C)cc4)cc2)N3)C1 (stereo not given) -7.5%, COc1cc(NC(=O)Cn2c(=O)n(Cc3ccco3)c(=O)c3sc4ccccc4c32)cc(OC)c1 -14.4%, COCCCNc1oc(/C=C/c2cc(OC)c(OC)c(OC)c2)nc1C#N 4.63%
